Results: PubChem BioAssay AID1508623 (National Center for Advancing Translational Sciences (NCATS), 2021)
Among all 48,000 compounds or so, about 450 (0.94%) were called active. The shares of active, inactive and inconclusive entries below differ from those in the screen. Calls follow the shape of the dose curve; as a rule, active = well fitted inhibition curve with a large enough effect; inconclusive = small, poorly fitted or top-dose-only effect; inactive = no such curve, though single readings can be large or run the other way. Where the call is inconclusive, the potency comes from a doubtful curve fit.

assay: Primary qHTS for Identification of Small Molecule Inhibitors of Huntingtin Promoter Activity; conditions: HEK293 HTT promoter firefly luciferase reporter (activity 0% = vehicle and -100% = no light), 24 h; series mostly up to 57.5 µM; also: nearly all actives have a fitted effect of over 50% in size
In short: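 HEK293 Fluc reporter, 2,500 cells/well, 24 h pre-culture; cpds up to 57.5 uM final, 24 h 37 degrees C; Dual-Glo, 10 min RT; normalized vehicle = 0%, zero RLU = -100%.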
Potency is read from the fitted curve at half-maximal effect; tags tell the direction and shape of the fitted curve.

Potency, inconclusive:
CSc1oc(-c2cccs2)nc1S(=O)(=O)c1ccc(Br)cc1 22.4 µM [inhibitor, partial curve, poor fit], CCOc1ccccc1N(C)C(=O)c1c2c(nc3ccccc13)C(=O)N(C1CCCCC1)C2 39.8 µM [inhibitor, single point], Cc1cc(-c2ccc(C)c(S(=O)(=O)NCC3CCN(Cc4ccccc4F)CC3)c2)on1 28.2 µM [inhibitor, partial curve, poor fit], COc1ccc2cc3[n+](cc2c1OC)CCc1cc2c(cc1-3)OCO2 13.7 µM [inhibitor, partial curve, poor fit], Cc1ccccc1CCNC(=O)c1ccc2c(c1)nc1n2CCCCC1 14.1 µM [inhibitor, partial curve, poor fit], COc1cc2c(cc1Cc1cccc(Cl)c1F)c(=O)c(C(=O)O)cn2[C@H](CO)C(C)C 24.3 µM [inhibitor, single point], Cc1cc(OCCCc2c(C(=O)O)n(Cc3cccnc3)c3c(-c4c(COc5ccc(N6CCN([S+](C)(=O)[O-])CC6)cc5)nn(C)c4C)cccc23)cc(C)c1Cl 48.5 µM [inhibitor, single point], COc1ccc(Cn2c(C(=O)O)c(CNCc3ccc(SC)cc3)c3ccc(OC)cc32)cc1 28.2 µM [inhibitor, single point], Cc1ccccc1NC(=O)c1sc2nc3c(cc2c1N)CN(Cc1ccccc1)CC3 15.8 µM [inhibitor, partial curve, poor fit], Cc1cc(F)ccc1NC(=O)C1CCC(CNS(=O)(=O)c2ccc3c(c2)CCCC(=O)N3)CC1 (centres undefined) 39.8 µM [inhibitor, single point], COc1cccc(N2CCN(C(=O)CN3CCSc4ccccc43)CC2)c1 31.6 µM [inhibitor, partial curve, poor fit], COc1ccccc1CNc1ncnc2c1cnn2-c1ccc(C)cc1 20 µM [inhibitor, partial curve, poor fit], CC1(C)OC2=C(C(=O)c3ccccc3C2=O)[C@H](NCc2ccccc2)[C@H]1O 10.9 µM [inhibitor, full curve], COc1ccc(N2C(=O)CSC23C(=O)N(Cc2cccc(F)c2)c2ccccc23)cc1Cl (centres undefined) 39.8 µM [inhibitor, single point], Clc1ccc(Nc2c(-c3ccccc3Cl)nc3ccc(Cl)cn23)cc1 39.8 µM [inhibitor, single point], Cc1cccc(C(=O)Oc2c(Sc3ccccc3)c(C)nn2C(C)(C)C)c1 31.6 µM [inhibitor, single point], Cc1ccc(S(=O)(=O)N(CCc2ccccc2)CC(=O)Nc2ccc(Br)cc2)cc1 28.2 µM [inhibitor, partial curve, poor fit], CCOC(=O)c1ccc(N2C(=O)c3n[nH]c(-c4ccco4)c3C2c2cccc(O)c2)cc1 (centres undefined) 39.8 µM [inhibitor, single point], COc1ccc(-c2nc(CCNC(=O)c3ccc(Br)o3)cs2)cc1 39.8 µM [inhibitor, single point], COc1ccc(-c2nc(CNS(=O)(=O)c3cccc(F)c3)cs2)cc1 22.4 µM [inhibitor, single point], Cc1ccc(Nc2sc(C(=O)c3ccccc3)c(N)c2C(N)=O)cc1 39.8 µM [inhibitor, single point], Cc1ccc(NC(=O)c2ccc(CNS(=O)(=O)c3ccc4c(c3)C(C)(C)C(=O)N4C)cc2)cc1F 25.1 µM [inhibitor, partial curve], CCOC(=O)C1=C(CN(C)Cc2ccccc2)NC(=O)NC1c1ccc(OC)cc1 (centres undefined) 31.6 µM [inhibitor, partial curve, poor fit], O=C(NCC(c1cccnc1)N1CCc2ccccc21)c1ccc(F)cc1 (centres undefined) 39.8 µM [inhibitor, single point], Cc1c(C(=O)N(Cc2ccco2)Cc2ccccc2Cl)oc2ccc(F)cc12 28.2 µM [inhibitor, partial curve, poor fit], COc1ccc(OC(C)C(=O)NCc2nc(-c3cccc(C)c3)no2)cc1 (centres undefined) 31.6 µM [inhibitor, single point], CSc1nn(Cc2cccc(Cl)c2)c(N(C(C)=O)C(C)=O)c1S(=O)(=O)c1ccccc1 39.8 µM [inhibitor, single point], CCC(C(=O)Nc1ccc(C(=O)OC)cc1)n1nc(-c2ccc(C)c(C)c2)ccc1=O (centres undefined) 22.4 µM [inhibitor, partial curve, poor fit], COc1ccc(S(=O)(=O)N(Cc2nc(-c3ccc(Cl)cc3)no2)C2CCCCC2)cc1 35.5 µM [inhibitor, single point], Cc1oc(C)c2c(=O)cc(-c3ccc4c(c3)OCO4)cc(OC(=O)c3cccc(Cl)c3)c12 35.5 µM [inhibitor, single point], CN1C(=O)C(C)(C)c2cc(S(=O)(=O)N3CCCC3C(=O)Nc3ccc(F)cc3)ccc21 (centres undefined) 35.5 µM [inhibitor, partial curve, poor fit], CCCCOC(=O)c1cccc(NC(=O)/C=C/c2ccccc2Cl)c1 15.8 µM [inhibitor, partial curve, poor fit], O=C(CCC1N=C2c3ccccc3N=C(SCC(=O)Nc3ccc(F)cc3)N2C1=O)NCc1cccs1 (centres undefined) 39.8 µM [inhibitor, single point], Cc1cccc(NC(=O)c2ccc(CNS(=O)(=O)c3ccc4c(c3)C(C)(C)C(=O)N4C)cc2)c1 22.4 µM [inhibitor, partial curve], Cc1ccc(C(=O)N(c2ccc(C)cc2)S(=O)(=O)c2ccc(Cl)cc2)cc1 35.5 µM [inhibitor, single point], Cc1ccc(NC(=O)C(Cc2ccccc2)N2Cc3ccccc3C2=O)cc1Cl (centres undefined) 39.8 µM [inhibitor, single point], COc1ccc(C)cc1NC(=O)c1cc(S(=O)(=O)N2CCc3ccccc3C2)ccc1F 15.8 µM [inhibitor, partial curve], Cc1ccc(S(=O)(=O)C(CNC(=O)C(=O)NCCc2ccc(Cl)cc2)c2cccs2)cc1 (centres undefined) 3.98 µM [inhibitor, full curve, poor fit], CCN1CCN(CCCNC(=O)Cn2c(-c3cccs3)cc3cc(F)ccc32)CC1 39.8 µM [inhibitor, single point], COc1ccccc1N1CCN(S(=O)(=O)CCNC(=O)Cc2ccc(Cl)cc2)CC1 35.5 µM [inhibitor, partial curve, poor fit], CCOc1ccc(Nc2ncnc3scc(-c4ccc(OC)cc4)c23)cc1 15.8 µM [inhibitor, partial curve, poor fit], CC(C)(C)OC(=O)N1CCC(c2c(C(=O)N3CCN(Cc4ccccc4)CC3)cnn2-c2ccc(Cl)cc2)CC1 25.1 µM [inhibitor, single point], Cc1cc(-c2ccc(C)c(S(=O)(=O)NCc3cccs3)c2)on1 12.6 µM [inhibitor, partial curve, poor fit], CCS(=O)(=O)c1ncc(Cl)c(C(=O)NCc2ccccc2)n1 39.8 µM [inhibitor, single point], O=C(Nc1cccc(C(F)(F)F)c1)C1CCN(S(=O)(=O)c2cccs2)CC1 39.8 µM [inhibitor, single point], CCn1cc2nc(SCc3cccc(C(F)(F)F)c3)n(Cc3ccc(OC)cc3)c(=O)c2n1 20 µM [inhibitor, partial curve, poor fit], CC(=O)Nc1ccc(C(=O)Nc2ccc3c(c2)N(C2CCCC2)C(=O)c2ccccc2S3)cc1 10 µM [inhibitor, partial curve, poor fit]

Potency, inactive:
COc1ccc(Nc2c3c(nc4nncn24)CCC3)cc1OC, CN(C)CCN(Cc1ccsc1)c1ccccn1, O=C(Nc1ccc2nc(SCCOc3ccccc3Cl)sc2c1)c1ccc2c(c1)OCO2, COc1cc(C)c(C=CC(C)=CC=CC(C)=CC(=O)O)c(C)c1C, Cc1ccc(NC(=O)CSc2ccc(-c3ccccn3)nn2)cc1F, N#Cc1c(C(F)(F)F)cc(-c2cccs2)nc1SCC(=O)Nc1cccc(C(F)(F)F)c1, Nc1ccccc1NC(=O)c1ccc(CNc2nccc(-c3cccnc3)n2)cc1, O=C(Cn1c(SCC(=O)Nc2ccc(F)cc2)nc2ccccc21)NCc1ccccc1Cl, Cc1ccc(C)c(Nc2nn3c(=O)c4cc5c(cc4nc3s2)OCO5)c1, Clc1cccc(-n2nnnc2NCc2ccccc2Oc2ccccn2)c1Cl, CC1(C)OC(=O)Nc2ccc(Br)cc21

Potency, active:
CCC1=C(c2ccc(C)cc2)S(=O)(=O)N=C1N1CCC(C(=O)NCCc2ccc(Cl)cc2)CC1 20 µM
